# Test results as given in the supplement of paper PMC10126150.
# Sequences with one replicate were seen in a single cluster, so their values are uncertain.
# Tested on: ATP
# Test: switch fluorescence ratio, 500 uM ATP over buffer (Cy3 cluster intensity, sum of 5 cycles each) (fold (ratio)); higher = stronger signal-on switching upon ATP binding; sequences stand for … in TCGTCGGCAGCGTCAGATGTGTATAAGAGACAGTTTTTTTTTTTTTTTTTTTTTTTTT…TC
# Conditions: aptamer strand: ATP DNA aptamer (quencher-CACCTGGGGGAGTATTGCGGAGGAAGG + anchor), 100 nM annealed; ATP concentration: 500 uM; one replicate
# Method in brief: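 Cy3-labelled switching-strand clusters on a modified Illumina MiSeq flow-cell were annealed to 100 nM quencher-labelled ATP aptamer, imaged in selection buffer, then imaged after 15 min with 500 uM ATP at 22 °C. Five buffer/ATP cycles ran, with NaOH stripping and re-annealing between them. The fluorescence ratio is summed target-cycle over summed buffer-cycle Cy3 intensity per cluster, averaged per switch-domain sequence. Clusters outside 100-1000 RFU were excluded.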
# 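Note: ATP exposure 15 min at 22 °C before imaging.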
row,Sequence,switch fluorescence ratio
1,AATTGGGGCA,0.954
2,ATGACCATCG,1.04
3,ATCGACGGCA,1.04
4,GGAAAATCGG,0.967
5,GTGCTGGGAG,0.981
6,CGCTCGATAA,1.07
7,CCATATATTG,0.948
8,CATAGTCTCT,0.998
9,TGGGGCCCAG,0.973
10,GTTTGGCCAC,1.05
11,TTAATAGTT,0.994
12,TTGACTTAGG,0.997
13,AGAATCGCAC,1.14
14,CGAGAGGTAT,0.991
15,AGTCTTGC,1.02
16,TGGTGGTCCG,0.988
17,ACCGAATCAT,0.978
18,AAGGCTGTAT,0.999
19,CCTTTCAGCT,1.1
20,TATTGTTGAA,0.999
21,ATAAAGGTGA,1.09
22,ATCGGTCAAT,1.04
23,CAGAAATTTA,0.983
24,GGACGGGTAT,1.03
25,GCCTGGTATC,0.978
26,GATCTCAGT,1.01

row,Sequence,switch fluorescence ratio
1,GTTGATTACC,1.04
2,CTCTCGTGTT,0.964
3,ATGGGTACTC,0.989
4,TGATGTTAT,1.01
5,TAACAGTAAA,0.999
6,TCAGTACGCT,1.29
7,CTAAGGTCAG,0.948
8,CAATGTCCGG,1.03
9,AATAACTTGG,1.01
10,AAACACTCTA,1.1
11,AGATAAGCC,1.03
12,ATCTCCCCGG,3.15
13,CTGGGCACGA,1.04
14,GTAACCGTCC,2.46
15,ATGCAACTCT,0.974
16,CATATGGTAG,1.03
17,AAATATCACA,1.03
18,CTATATTCCA,1.03
19,AGACTGAGA,0.977
20,GCGGGGTGGC,1.04
21,TGATTTCAGC,1.03
22,GGCACTTTAC,1.52
23,CACCTAAACG,1.09
24,TCATAGGGCC,1.01
25,TTGGTTAATC,1.04
26,CAACTGATGC,1

row,Sequence,switch fluorescence ratio
1,AGATGGTGCT,0.976
2,GCTATTCGCC,1
3,AATCATGTTA,0.996
4,TTTGCGTCA,1.01
5,GAAGAAACAC,1.46
6,TACGTTACGT,1.35
7,TGCCTCGGCT,1.09
8,TTATCGCTGA,1.01
9,CACGTGAGTC,0.972
10,TTACGACGGC,1.13
11,TTAATCGGCA,0.999
12,GCGGAATTTG,1.01
13,TATATGTTT,1.02
14,GAACATCAAA,1.02
15,GGTGCGGATC,0.967
16,GACGCCTGGT,1.04
17,TGCATCCCCG,1.41
18,TTTCTTACAG,1.01
19,TAGATCGCGA,1.01
20,ACAAAGCT,1.2
21,TTGATCATGG,1.05
22,AGGGCGACGT,1.17
23,TGCGATCAGT,0.985
24,GCCGCTTTTG,1.04
25,TGGATACAGG,1.04
26,GGGCAAAGAA,1.02

row,Sequence,switch fluorescence ratio
1,CGACCCGTCA,1.04
2,CGAGTCAACT,1.06
3,CTCACGTTTG,1.05
4,GGCCAATGGT,1.01
5,CAAATTAAGG,0.999
6,AAATGTAACT,1.05
7,ACGCCCGTGG,1.02
8,TTTCAGTGAT,1.02
9,CTATTCAAGT,1.11
10,TTAATTACC,1.12
11,GGGCCTGGAT,1.01
12,CTCAAATTAT,1.09
13,CCCACTATGG,1.08
14,TACACGTCGG,1.03
15,GTAGACAGGG,1.06
16,GTGGTCACAT,1.01
17,TGCACATCGA,0.951
18,TATGTACT,1.03
19,CGTAATTGCT,1.08
20,TATGACAATA,0.992
21,TTGGGAGCCT,1
22,CACCCAAAAA,1.04
23,ATTCTGTATA,1.04
24,AATTTGAAGT,1.01
25,TACAAAAGCG,0.997
26,AGACAAGAG,0.974

row,Sequence,switch fluorescence ratio
1,ACCGGCGTTC,1.02
2,TAAGATTATT,0.974
3,CGGCATGACT,1.06
4,TTGCATTCC,1.82
5,ACTCAGTACG,1.11
6,TGCCTGATCT,1.05
7,AGATTGAAG,1.03
8,GCCGCGACCG,1.05
9,AGTATCCTAT,0.994
10,TGGCTAATGG,1.03
11,TATGTAAGAC,1.17
12,ACCGTTGGTG,0.998
13,TTAGTCTTTT,0.998
14,GTTCTTACGT,1.05
15,GCCGGGTCCT,1.02
16,GCCGCCCGTA,0.966
17,TTCGGATCTC,0.962
18,TTATGCCCTG,0.989
19,GTTGATTCGT,0.969
20,TGGACTGTGT,1
21,AAGTTGCAAG,0.999
22,AGCTAAGGTG,2.39
23,TGTGGTGTTA,0.956
24,TTGTTGACCG,1
25,TTAGCCGTGG,0.983
26,GGTCTACATA,0.998

row,Sequence,switch fluorescence ratio
1,GATCTCGATA,1
2,TTAATTGCGG,1.06
3,AGGTGTGGGG,0.98
4,ACTCGAACCA,1.07
5,TATAATATG,0.994
6,CTAAGCTCGG,1.02
7,ACGATGATGC,1.21
8,TCTGGGCCCA,1.03
9,GGTCATCCTA,0.949
10,AATTCTTTTA,0.979
11,CCGCTGTGCG,1.09
12,GACAGACTGT,1.01
13,TTGTGGAAGG,1.04
14,AGGGTGTGGG,1.03
15,GGACGTGGTT,0.965
16,GGACGTATAT,1.19
17,GGGCTCCTCT,1.03
18,TGATCGAATG,1.02
19,ATCGGTAATA,1.19
20,GTCATCCGTG,1.01
21,CCAAAAAAT,1.01
22,CCTCTTCCCG,1.48
23,TCCATGGCTC,0.975
